From the supplement of paper PMC3334620
In all, about 33,000 sequences were measured (“E-score (-0.5 to 0.5)”: median about -0.013, highest 2% from about 0.3 on). The list shows a part of the results.

Molecular target: T1, Msn1 (UniProt P22148)
T1 sequence: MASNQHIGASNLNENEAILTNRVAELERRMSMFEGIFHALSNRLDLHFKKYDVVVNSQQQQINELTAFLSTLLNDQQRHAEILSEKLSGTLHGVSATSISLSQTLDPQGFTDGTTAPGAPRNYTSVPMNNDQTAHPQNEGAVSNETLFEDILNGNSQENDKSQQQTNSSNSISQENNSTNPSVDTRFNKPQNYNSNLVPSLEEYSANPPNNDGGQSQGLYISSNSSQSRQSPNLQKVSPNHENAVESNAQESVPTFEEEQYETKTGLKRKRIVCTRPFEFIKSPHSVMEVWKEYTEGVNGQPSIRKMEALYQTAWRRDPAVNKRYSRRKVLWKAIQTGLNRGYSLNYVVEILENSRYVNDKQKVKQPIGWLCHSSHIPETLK
Assay: PBM E-score (8-mer binding enrichment) (E-score (-0.5 to 0.5)); higher = stronger / more preferred TF binding; most listed sequences are background and not binding sites
Conditions: protein concentration: 200 nM; construct: GST-full length
Summary of the method: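 Yeast transcription factors carrying a GST tag, as full-length proteins or DNA-binding domains, were produced by PURExpress in vitro transcription/translation. About 100-200 nM protein was applied to universal all-10-mer Agilent arrays, double-stranded by primer extension on fresh or once-stripped slides. Bound protein was detected with fluorescent anti-GST, and scans were normalised with masliner. The Universal PBM Analysis Suite gave each ungapped eight-base word, pooled with its reverse complement, an E-score, a modified Wilcoxon-Mann-Whitney statistic.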

Sequence	PBM E-score
ATGATCCG	-0.00539
CCCCATCA	-0.0166
CAGCTATC	-0.0627
ATCTAATA	0.0267
CGTAGATC	-0.0204
ACTAGACA	0.274
AGCTTCGC	-0.199
TATTGTGA	0.0467
AAAGACTA	-0.0897
CGTCCTAG	0.13
CAAGGGAG	-0.161
GCGGGAGC	-0.244
AAGCCGGT	-0.0922
ATCCCCAT	-0.131
ATGTATGC	0.0615
CCGTACGC	-0.0211
CACGTGTA	-0.0987
CCACATGG	-0.212
GACATCTA	0.404
AGTACGAC	0.0524
AGGAGAAG	-0.265
AGCCATTC	-0.0296
CTTGTCAA	0.162
AATAATAT	0.33
CTAGGGAC	0.134

Sequence	PBM E-score
GTGTCTCA	0.286
CACAGAAC	-0.115
CAGCCATA	-0.0359
AAGTCTGA	0.016
CGAGGCCG	-0.0921
GCAGTAGC	-0.289
AACGAATA	-0.0354
CACCCTCG	-0.0601
ACGGGGAT	-0.076
CTTGGGTC	-0.123
AGGCAATA	-0.0129
TTGGAAAA	0.0431
GAGGTCCA	-0.0849
CAAACTGG	-0.014
ACGCGAGC	0.06
AGCTGTTG	0.152
TCGAGTAA	0.157
ATGAGAAG	-0.0382
AGGCGCCT	-0.0369
CAGACCGC	-0.0442
ACTATCAG	0.0656
AATCAGTC	0.126
AGATCTCG	0.0215
CCAAAAAC	0.0933
CACATTCA	-0.0795

Sequence	PBM E-score
ACCGGGCG	-0.163
CAATTGGA	0.175
ATGGTTTC	0.153
ATGCTAGC	0.063
AGTACTGA	0.129
CTTATAGA	-0.114
GACAATCC	0.355
TAAGTCAA	0.098
AAGCAAGA	-0.0395
ACCATTGA	-0.0256
ACCACGCC	-0.0524
GCCTACGA	0.0407
TCGACCGA	0.0492
GTATCGTA	0.145
CAAGTCCA	0.115
CGAATAAG	-0.0509
CAACACGA	-0.00668
AACGCAAG	0.0358
CAACCCCC	-0.313
CGGCCCGA	-0.0194
CCGTTTTA	0.0515
CCAATTGG	0.168
GCTGCTTA	-0.144
GACTAACC	-0.0912
ACATAGTG	0.0558

Sequence	PBM E-score
ACGAAACG	0.0382
TAGATAAA	0.117
CACTCAAC	-0.0866
GGTGGATA	0.0155
GACAAGTA	0.369
ACAAACCG	0.168
CGCTCGAA	-0.0779
AGGTCCTG	0.0441
AGAGCTTC	-0.16
AAACCACA	0.0149
ATCTGAAA	0.17
AGACGTCC	0.199
CCCTGTAG	-0.146
GATACTGC	0.143
CACCGGGG	-0.36
AGCGTGCA	-0.125
ATTCACTG	-0.093
CTAATGGC	-0.0257
CCCACAAC	-0.0623
CGGTGGGA	-0.113
CACTCGCA	-0.0465
AAAACTCT	0.0335
ATAGGCCA	-0.0607
CACGGAGG	-0.0865
CAAGTATA	-0.0799

Sequence	PBM E-score
CATACGGG	-0.0153
AGCCGTCG	0.136
AGGGAAGA	0.0181
ACTGCGCG	-0.0443
AAATACTG	0.101
TTTAAAAA	0.106
GACTATTA	0.12
ATAACGAT	-0.192
AGGGAATC	-0.256
CATGTAGG	0.0217
ATGGATAA	0.0593
ATGGCAGC	-0.117
AGGAAAAC	-0.0136
CTCACTGC	-0.0256
ACGTGATG	-0.0245
ACCACGAA	0.03
GTGGACGA	0.18
AAACAGCG	0.00804
CTCTGTGA	0.126
CGTACCAA	0.182
AGGTGAGA	0.224
GGCTATTA	0.0244
CTAGTACA	0.308
AGCTTTCC	-0.198
AGAGCCGA	0.041

Sequence	PBM E-score
ATCCGAAC	-0.00081
GATTGTCA	0.245
ATAACCCA	-0.0169
CCGTTGGA	-0.0378
AGAGAGAG	-0.239
AACCTAGC	-0.144
CAATTCCC	0.0597
CATTGCAC	0.0641
TGCGTCAA	-0.0491
TCCGACGA	0.172
ACATTAAT	0.155
CTTCAATC	-0.0501
CGGAGGGC	-0.38
ACCCTCGA	-0.189
AAAATGAC	0.179
AGAACCCT	-0.199
CAAATAGA	0.231
CTCCTAGA	-0.0389
AGCTGTTA	-0.0398
GTACAAGA	0.272
AAGCTGTA	0.0383
ATTGAGCA	0.0739
ACATGACT	-0.0227
CGCAGTCA	-0.301
ACCTGTGG	-0.223

Sequence	PBM E-score
CTATTGCA	-0.11
ACCGTCGC	-0.0915
ACGCATAC	0.147
CGCTGGAC	0.00307
AGTTTCAC	-0.0676
CAGTTCCC	-0.0791
CAGTTGGG	-0.0934
ATAATCGA	0.0323
ACTTCCGC	0.0454
AGAGTGGG	-0.203
CTCAGGAG	-0.11
ACGGCTGC	-0.0997
CACCAGTG	-0.184
CCATCGAA	-0.115
CAGACTAG	-0.151
CCTTATCG	-0.0629
GCTTCGCC	-0.218
AGGTACGC	-0.11
AGCCGAAT	0.00249
ACGTATTC	0.0104
AACGCTGG	-0.113
GGCCCCAA	-0.187
CGCTAGGC	-0.174
CATATCAA	0.133
AAGATAGA	-0.00373

Sequence	PBM E-score
CAGGTATA	-0.0449
ACCAGCTG	0.116
ACTTGCGG	-0.0312
TACGTACA	0.186
AAGTCAGG	-0.0755
CTTGACGC	-0.167
TCCCCTAA	-0.0701
TCGCAAGA	-0.177
ACTGCTGC	-0.142
GTCGGAGA	0.0165
ATCCAGAG	-0.093
GTGCAAAA	0.0202
AGTCAGCG	-0.206
GAACCACC	-0.0388
CCATAGGA	0.0587
TCCAGGAA	-0.122
AAATTCAG	0.0993
CACCCAAA	0.0602
CTGCGTAA	-0.00214
ACCAATAA	-0.0367
CTTTTGCA	0.123
AGATGCAT	-0.0339
CAACTCAG	-0.018
GGATATTA	0.0953
ACCTTACG	0.0554

Sequence	PBM E-score
AGGAGACC	-0.235
GCAGCCCC	-0.121
ATGGCGCG	0.0293
CGTGTGCC	-0.137
CCGTGCGC	-0.0113
ATGGCTAG	0.0388
ATAGCTTA	0.0113
AACGTCGG	0.0133
CATGATGC	0.0676
GGTAAGAA	-0.0516
ATCCTCTA	-0.163
TCGACAAA	0.378
GCTAGCCC	-0.345
ATTTTCAG	0.162
ATTCGTAG	-0.0809
CACGCGGG	-0.0875
CGAGGCTC	-0.105
GTAAACCA	0.0125
CTAGCGGA	-0.154
CTCCCCAC	-0.256
AGTAATGC	-0.0808
AACCGAGA	0.22
AACTCGTA	0.0507
CGCTCTGC	-0.112
ATTTCCTC	0.0595

Sequence	PBM E-score
CATAGCGG	-0.189
GCCGCGGC	0.106
AACGCACA	0.0119
ATCATGGA	-0.0629
AAGTTTGC	0.0417
CGAGAAAG	0.0577
CGAGCAGA	-0.0524
GCGACCGA	0.132
AACTTCCC	-0.0261
AATGGAGC	-0.132
GGTCCGAC	0.0201
GGGTTAAA	-0.105
CTTCTGTA	0.147
CAGTTTCG	-0.0339
CCTCCCCG	-0.0812
TAACCGCA	0.0556
AGGAATTA	0.195
CGATCAAA	0.0324
ATCGATCC	-0.162
CATGCGCG	0.11
ATGCTTGG	-0.0374
CTACGAGA	-0.0692
AGAAGAGA	-0.153
ATTTTTCA	0.0848
AAGAAGTC	0.102

Sequence	PBM E-score
CTGTGGGA	-0.0877
CAAATACA	0.094
GCGATAGC	-0.194
TAGAGAAA	0.0253
CTAATTTC	0.183
CACACGGG	0.00643
AAGCAAAA	0.165
GCTTCATA	0.0223
CCGCCCCC	-0.353
CAGCTCCA	-0.122
AATACAAG	0.134
CTCGAAAC	0.0861
CAAACAGG	0.111
CAGCGGGC	-0.075
AAAAACTT	0.0862
AATCATGA	0.247
CCTGCTCC	-0.0282
AGTTTGGC	0.0323
TCAAGACA	0.247
CCAAGTCA	-0.179
AATAAAAG	0.106
GGGACTCA	0.0181
TCGCACGA	-0.107
ACCAGATG	-0.028
CCAGACCC	-0.308

Sequence	PBM E-score
CAGATTCG	-0.0284
CGGGCCCC	-0.295
AGGCGCCA	-0.121
GGTGACAC	-0.0303
CCGAGGGA	-0.228
GTAATTGA	0.0433
GACCGGGA	-0.13
ATGGCAAT	0.0456
CTAGCTAC	-0.156
GATTTACC	0.147
CAAATTCA	-0.081
CCACCCGC	-0.282
ACACCACT	0.0915
AACAAGCT	-0.0167
GTTTGGGA	0.185
CATCCCAC	-0.217
GATTCAAA	0.0389
ACGCCCCG	-0.14
CCTGACAC	0.0219
CGGCGCCA	-0.0198
CAGAGCCG	-0.0822
ACTAATGG	0.0668
GATAGTGC	-0.0686
AAGAGGAG	-0.147
ATACCTAG	-0.0479

Sequence	PBM E-score
GAGTTATC	0.126
CACCTTTA	-0.0449
AGTGTGTA	-0.0905
AGTACAGA	0.144
TACCGGGA	0.148
AACATTAA	0.158
ACACTCGT	-0.0408
CTCATCTA	-0.0905
CGAATCAG	-0.0431
ACCGCATC	-0.105
CGCGATTC	0.0594
AGATCACC	-0.0232
AGCACTGG	-0.216
TACTACTA	0.243
CCACTGAG	-0.249
GATCCAAA	0.0844
AGCTCACC	-0.141
AGTCCGAG	0.301
ACAACCAT	0.233
ACCCTTAT	-0.0336
CCCCCGGA	-0.386
AATCGCGC	0.0361
AAAATTCG	0.232
GAAGCAAC	-0.0717
CGCGGTGA	-0.0343

Sequence	PBM E-score
AAAACATC	0.131
CAACAGAG	0.0497
AACGCGTC	0.154
GCGAAATA	0.00476
CCATTCCA	-0.00223
AGGAGGGC	-0.318
CTGGGAGC	-0.181
CGGAGACA	0.27
CCATACCC	-0.252
GGCACCGA	-0.0783
CTGTGGGC	-0.0947
AAACTTCC	-0.0758
GATATACC	0.0797
TAGGAACA	0.0697
GTTCCCCA	-0.0857
AACGCGTT	0.0117
GATGTGAA	0.00964
TAAGCTCA	-0.0986
AAGCTCAG	0.00757
